According to patent US11149300B1, “Methods of treating gastrointestinal malignancies” (Cedars-Sinai Medical Center, priority 2018, dated 2021):
Where two headings read alike, the source gives them in different places.

Key:
ferret emesis model = type: in vivo
gastrointestinal transit = type: in vivo; conditions: 100 mg/kg
C-41 cells = conditions: AlamarBlue cell survival; cited from earlier work
[1] = cited from earlier work
[2] = cited from earlier work; remark: listed apart in the source
[3] = monkey, 5 μM; cited from earlier work
[4] = mouse, 5 μM; cited from earlier work
[5] = rat, 5 μM; cited from earlier work
[6] = human, 5 μM; cited from earlier work
major human CYPs = conditions: in vitro; cited from earlier work
[7] = physiological pH; cited from earlier work
[8] = test system: human H1, human 5-HT1A and human 5-HT7 sites; conditions: range over the three sites; cited from earlier work
human H1 = human H1 (Homo sapiens, UniProt P35367); conditions: 10 μM (2.4 μg/mL); cited from earlier work
[9] = cited from earlier work; remark: listed apart in the source
[10] = 300 mg/kg IP, day 1; cited from earlier work
[11] = cited from earlier work; remark: listed apart in the source
[12] = cited from earlier work; remark: listed apart in the source
[13] = cited from earlier work; remark: listed apart in the source
[14] = with topotecan 0.6 mg/m^2/d; cited from earlier work
PARP = conditions: read-out: EC50, inhibition of H2O2-induced poly(ADP-ribosyl)ation; C-41 cervical carcinoma cells; cited from earlier work
tumor models = conditions: cited from earlier work
[15] = cited from earlier work; remark: listed apart in the source
hERG [16] = target: T1, hERG (Homo sapiens, UniProt Q12809); conditions: read-out: IC50, hERG current; cited from earlier work
[17] = test system: refractory solid tumors and lymphomas; conditions: cited from earlier work
hERG [18] = target: T1, hERG; test: hERG current block
[19] = repeated dose (2-week) toxicology study; conditions: Cmax 0.21 μg/mL
[20] = Phase I VelGemRad trial, MTD, DLT and safety
[21] = projection and simulation of human PK and QTc
[22] = in vitro action potential duration (repolarization); conditions: at 0.42 μg/mL
MiaPaCa-2 = test: radiosensitization in vitro (PAR Western/ELISA, clonogenic dose enhancement, caspase 3/7)
[23] = parenteral, with cytotoxic therapy

T1 sequence (Q12809 whole entry): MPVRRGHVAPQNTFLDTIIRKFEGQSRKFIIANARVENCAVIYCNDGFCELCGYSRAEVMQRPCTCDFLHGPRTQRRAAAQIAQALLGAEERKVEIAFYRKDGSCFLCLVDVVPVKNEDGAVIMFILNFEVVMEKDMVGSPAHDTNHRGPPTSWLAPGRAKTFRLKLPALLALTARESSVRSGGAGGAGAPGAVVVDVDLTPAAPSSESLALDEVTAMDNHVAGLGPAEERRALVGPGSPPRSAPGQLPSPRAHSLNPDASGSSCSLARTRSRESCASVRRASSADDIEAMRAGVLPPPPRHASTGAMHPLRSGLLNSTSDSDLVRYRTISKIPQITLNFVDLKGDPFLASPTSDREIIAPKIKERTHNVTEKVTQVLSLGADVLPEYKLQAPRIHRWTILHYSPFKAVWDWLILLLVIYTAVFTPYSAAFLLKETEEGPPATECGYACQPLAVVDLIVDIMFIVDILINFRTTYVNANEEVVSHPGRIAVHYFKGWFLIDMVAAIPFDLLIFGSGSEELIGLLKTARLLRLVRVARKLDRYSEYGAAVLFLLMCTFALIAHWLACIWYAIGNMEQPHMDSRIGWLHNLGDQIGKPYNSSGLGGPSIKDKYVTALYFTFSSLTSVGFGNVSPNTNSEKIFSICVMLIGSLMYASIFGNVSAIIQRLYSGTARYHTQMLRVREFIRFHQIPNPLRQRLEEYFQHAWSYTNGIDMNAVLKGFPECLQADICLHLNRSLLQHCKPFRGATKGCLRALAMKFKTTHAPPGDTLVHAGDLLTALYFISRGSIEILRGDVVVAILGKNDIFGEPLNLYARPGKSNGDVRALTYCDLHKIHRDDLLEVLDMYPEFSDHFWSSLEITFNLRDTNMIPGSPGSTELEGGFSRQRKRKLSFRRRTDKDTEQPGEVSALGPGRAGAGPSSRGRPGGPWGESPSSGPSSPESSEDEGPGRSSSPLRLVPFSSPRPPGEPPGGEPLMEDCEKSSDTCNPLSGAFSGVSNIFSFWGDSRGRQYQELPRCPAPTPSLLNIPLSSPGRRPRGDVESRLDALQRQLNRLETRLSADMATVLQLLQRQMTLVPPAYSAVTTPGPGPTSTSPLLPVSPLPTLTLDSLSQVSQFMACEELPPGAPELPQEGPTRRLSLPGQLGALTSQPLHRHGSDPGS
Chain of UniProt P35367 (P35367 whole entry): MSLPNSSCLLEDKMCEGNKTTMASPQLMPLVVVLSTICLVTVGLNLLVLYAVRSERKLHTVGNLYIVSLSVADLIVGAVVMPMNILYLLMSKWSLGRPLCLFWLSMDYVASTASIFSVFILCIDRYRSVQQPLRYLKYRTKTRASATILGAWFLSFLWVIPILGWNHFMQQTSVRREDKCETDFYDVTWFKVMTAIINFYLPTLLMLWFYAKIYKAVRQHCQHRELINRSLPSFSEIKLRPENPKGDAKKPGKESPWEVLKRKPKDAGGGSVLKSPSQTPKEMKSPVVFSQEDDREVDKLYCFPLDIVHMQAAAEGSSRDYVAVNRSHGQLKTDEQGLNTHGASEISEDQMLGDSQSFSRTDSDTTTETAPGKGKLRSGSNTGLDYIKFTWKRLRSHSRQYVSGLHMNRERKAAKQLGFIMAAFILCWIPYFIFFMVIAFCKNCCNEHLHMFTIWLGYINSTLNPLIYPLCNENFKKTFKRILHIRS

With C[C@]1(c2nc3c(C(N)=O)cccc3[nH]2)CCCN1 [veliparib] as the compound, how does the “multiple of predicted Cmax” value (ferret emesis model; 10 mg/kg, no emesis) read?
The value was 18 fold.

What about the “multiple of predicted Cmax at which emesis was seen” value (ferret emesis model; 20 mg/kg) of the same compound?
Its value is 31 fold.

What about the “multiple of predicted clinical Cmax” value (gastrointestinal transit) of the same compound?
Its value is 7 fold.

And the “maximal potentiation of temozolomide cytotoxicity” value (C-41 cells)?
The value was “approximately 15 fold”.

And the “survival at 30 days” value (pancreatic tumors; single dose of veliparib)?
Its value is 63%.

And the “survival at 60 days” value (pancreatic tumors; single dose of veliparib)?
Its value is 0%.

What about the tumor growth inhibition (pancreatic tumors; single dose of veliparib) of the same compound?
Its tumor growth inhibition is 8 days.

And the “survival at 30 days” value (pancreatic tumors; veliparib plus radiotherapy)?
The value was 100%.

What about the “survival at 60 days” value (pancreatic tumors; veliparib plus radiotherapy) of the same compound?
Its value is 29%.

What about the tumor growth inhibition (pancreatic tumors; veliparib plus radiotherapy) of the same compound?
Its tumor growth inhibition is 39 days.

And the “bioavailability from a non-formulated capsule” value ([1]; fasted dogs)?
Its value is 59.7%.

What about the “bioavailability from a non-formulated capsule” value ([1]; non-fasted dogs) of the same compound?
The value was 65.5%.

And the “oral bioavailability (F)” value ([2]; all species)?
The value was > 50%.

And the “volume of distribution (Vss)” value ([2]; all species)?
Its value is > 2.0 L/kg.

What about the “terminal elimination t1/2” value ([2]; range over species) of the same compound?
Its value is 1.2 to 2.7 h.

And the “protein binding in plasma, % bound” value [3]?
Its value is 41%.

What about the “protein binding in plasma, % bound” value [4] of the same compound?
The value was 43%.

And the “protein binding in plasma, % bound” value [5]?
The value was 49%.

What about the “protein binding in plasma, % bound” value [6] of the same compound?
The value was 51%.

What about the “inhibition of major human CYPs” value (major human CYPs) of the same compound?
The value was “not a potent inhibitor”.

And the solubility [7]?
The solubility was “high”.

And the IC50 [8]?
The IC50 was 1.2 to 5.3 µM.

And the “displacement of control-specific binding” value (human H1)?
The value was 61%.

What about the CNS effects ([9]; 100 mg/kg PO) of the same compound?
Its CNS effects is “mild sedation-like effects”.

And the CNS effects ([9]; 300 mg/kg PO)?
The CNS effects was “moderate to marked CNS effects”.

What about the CNS effects ([9]; 3-30 mg/kg PO) of the same compound?
Its CNS effects is “did not display clear adverse CNS effects”.

And the “animals with tonic-clonic seizures/death” value [10]?
The value was “approximately 50%”.

And the “effect on repolarization (action potential duration)” value ([11]; 0.42 μg/mL)?
Its value is “no effect”.

What about the “prolongation of action potential duration” value ([11]; 4.22±0.02 μg/mL) of the same compound?
Its value is 4.8%.

And the “prolongation of action potential duration” value ([11]; 39.49±0.70 μg/mL)?
The value was 18.6%.

And the emesis ([12]; 10 mg/kg gavage)?
Its emesis is “No emesis”.

And the mean plasma concentration ([12]; 10 mg/kg gavage)?
Its mean plasma concentration is 3800 ± 110 ng/mL.

And the emesis ([12]; 20 mg/kg gavage)?
Its emesis is “significant emesis”.

And the mean plasma concentration ([12]; 20 mg/kg gavage)?
Its mean plasma concentration is 6610 ± 260 ng/mL.

And the mean plasma concentration ([13]; 100 mg/kg)?
Its mean plasma concentration is 1630 ± 140 ng/mL.

And the “effect on gastrointestinal transit” value ([13]; up to 100 mg/kg)?
The value was “no significant effect”.

What about the MTD [14] of the same compound?
The MTD was 10 mg BID.

And the EC50 (PARP)?
The EC50 was 0.0024 µM.

What about the “toxicity at supratherapeutic dose” value (tumor models; 50 mg/kg/day via osmotic minipump) of the same compound?
Its value is “skin toxicity at the pump implantation site”.

And the “dose giving significant potentiation” value (tumor models; PO, divided twice daily)?
The value was 3.1 mg/kg/day.

What about the “dose of maximal potentiation” value (tumor models; PO) of the same compound?
Its value is “approximately 25 mg/kg/day”.

And the “AUC at maximally efficacious Css” value (tumor models; continuous infusion)?
The value was 1700 ng·h/mL.

What about the “Css (plasma concentration at steady-state) that was maximally efficacious” value (tumor models; continuous infusion) of the same compound?
The value was 70 ng/mL.

What about the “time plasma concentration above 70 ng/mL” value (tumor models; oral 25 mg/kg/day, divided twice daily) of the same compound?
The value was 2-4 hours per dose.

And the “toxicity at efficacious doses” value (tumor models; parenteral or PO, up to maximally efficacious doses)?
The value was “No increased toxicity”.

What about the “dose of maximal efficacy” value (tumor models; [23]) of the same compound?
Its value is “approximately 12.5 mg/kg/day”.

And the “lowest dose with significant efficacy” value (tumor models; [23])?
The value was 1 mg/kg/day.

And the route of clearance ([15]; rats and dogs)?
Its route of clearance is “cleared primarily in the urine as intact parent drug”.

And the “dose (total radioactivity) recovered” value ([15]; within 24 hours post-dose)?
Its value is > 80%.

And the IC50 (hERG [16])?
Its IC50 is 236 µM.

What about the MTD ([17]; combined with 50 mg QD cyclophosphamide) of the same compound?
Its MTD is 60 mg QD.

And the tolerability ([17]; with metronomic cyclophosphamide)?
The tolerability was “well tolerated”.

What about the “hERG IC50 as multiple of predicted clinical Cmax” value (hERG [18]) of the same compound?
The value was 278 fold.

What about the “multiple of predicted clinical Cmax, dogs with seizures” value [19] of the same compound?
The value was 26 fold.

And the “DLT lymphopenia, share of patients with DLT” value ([20]; 12 patients with DLT)?
The value was 83.3%.

What about the “DLT neutropenia, febrile neutropenia, abdominal infection, abdominal pain, hyponatremia, leukopenia, share each” value ([20]; 12 patients with DLT) of the same compound?
The value was 8.3%.

And the DLTs identified ([20]; 30 evaluable patients)?
Its DLTs identified is 16.

What about the “DLTs: abdominal infection” value ([20]; count) of the same compound?
Its value is 1.

And the “DLTs: abdominal pain” value ([20]; count)?
Its value is 1.

What about the “DLTs: febrile neutropenia” value ([20]; count) of the same compound?
Its value is 1.

What about the “DLTs: hyponatremia” value ([20]; count) of the same compound?
Its value is 1.

What about the “DLTs: leukopenia” value ([20]; count) of the same compound?
Its value is 1.

What about the “DLTs: lymphopenia” value ([20]; count) of the same compound?
The value was 10.

What about the “DLTs: neutropenia” value ([20]; count) of the same compound?
The value was 1.

And the “maximum tolerated dose (MTD)” value ([20]; with gemcitabine 400 mg/m^2 and RT 36 Gy/15)?
The value was 40 mg BID.

And the “most frequent grade >/=3 AEs” value ([20]; with gemcitabine and IMRT)?
Its value is “lymphocyte count decreased, hyperglycemia, and anemia”.

What about the “tolerability of the combination” value ([20]; with gemcitabine and IMRT) of the same compound?
Its value is “well tolerated”.

What about the GI toxicities ([20]; with gemcitabine and RT) of the same compound?
Its GI toxicities is “No significant GI toxicities”.

What about the “predicted clinical Cmax” value [21] of the same compound?
The value was 210 ng/mL.

What about the “predicted human t1/2” value [21] of the same compound?
Its value is ~4 h.

What about the “projected human CL” value ([21]; allometric scaling) of the same compound?
Its value is 26 L/h.

And the “predicted QTc prolongation in humans” value ([21]; anticipated dose 50 mg twice daily)?
Its value is “less than 3 msec”.

What about the “multiple of predicted clinical Cmax” value [22] of the same compound?
Its value is 2 fold.

What about the cytotoxicity alone (MiaPaCa-2) of the same compound?
The cytotoxicity alone was “minimal cytotoxicity”.

What about the “radiation-induced caspase 3/7 activity” value (MiaPaCa-2) of the same compound?
Its value is “significantly enhanced”.

What about the dose enhancement factor (MiaPaCa-2; 5 Gy and 1 uM) of the same compound?
Its dose enhancement factor is 1.29.

What about the dose enhancement factor (MiaPaCa-2; 5 Gy and 10 uM) of the same compound?
Its dose enhancement factor is 1.41.

And the dose enhancement factor (MiaPaCa-2; 5 Gy and 100 uM)?
Its dose enhancement factor is 2.36.

What about the “radiation-induced upregulation of PAR protein” value (MiaPaCa-2; co-treatment with irradiation) of the same compound?
Its value is “abrogated”.

What about the phospho-ATM levels (MiaPaCa-2; irradiation plus veliparib relative to either alone) of the same compound?
Its phospho-ATM levels is “upregulation”.
